{"source": "the supplement of paper PMC8728848", "binders": {"B1": {"name": "PpFlo2 (Pichia pastoris) (protein)", "chain": "MGSSHHHHHHSSGLVPRGSHMDDSGNGDNSDTAYGCDITTNAVDGFDATIYQYNANDLRLIRDPTFMSTGYLGRNVLNKISGVTVPGFNIWNPSSRTATVYGVKNVNYYNMVLELKGYFKADVSGDYKLTLSHIDDSSMLFFGKETAFKCCDAGSIPLNEAPTDYSLFTIKPSNQVNSEVISATQYLEAGKYYPVRIVFVNALERARFDFKLTIPSGAVLDDFQNYIYQFGDLDENSCHE"}}, "assay_in_all_cases": "glycan array binding signal (z-score within array); higher = stronger binding", "settings_in_all_cases": "glycan notation: IUPAC condensed, linker removed", "key": {"[1]": {"biological_target": "Fuc(a1-2)Gal(b1-4)GlcNAc(b1-6)GalNAc", "procedure,_shortened": "(§1)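 The Consortium for Functional Glycomics database supplied 3228 glycan arrays, of which those lacking an available protein sequence were dropped. The binding signal, a within-array Z-score, was averaged across arrays of the same protein sequence and across linkers. Negative scores can be read as non-binding.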"}, "[2]": {"biological_target": "Fuc(a1-2)Gal(b1-4)GlcNAc6S", "procedure,_shortened": "as §1"}, "[3]": {"biological_target": "Fuc(a1-2)Gal(b1-4)[Fuc(a1-3)]GlcNAc", "procedure,_shortened": "as §1"}, "[4]": {"biological_target": "Fuc(a1-2)Gal(b1-4)[Fuc(a1-3)]GlcNAc(b1-2)Man(a1-3)[Fuc(a1-2)Gal(b1-4)[Fuc(a1-3)]GlcNAc(b1-2)Man(a1-6)]Man(b1-4)GlcNAc(b1-4)GlcNAc", "procedure,_shortened": "as §1"}, "[5]": {"biological_target": "Fuc(a1-2)Gal(b1-4)[Fuc(a1-3)]GlcNAc(b1-2)Man(a1-3)[Fuc(a1-2)Gal(b1-4)[Fuc(a1-3)]GlcNAc(b1-2)Man(a1-6)]Man(b1-4)GlcNAc(b1-4)[Fuc(a1-6)]GlcNAc", "procedure,_shortened": "as §1"}, "[6]": {"biological_target": "Fuc(a1-2)Gal(b1-4)[Fuc(a1-3)]GlcNAc(b1-2)[Fuc(a1-2)Gal(b1-4)[Fuc(a1-3)]GlcNAc(b1-4)]Man(a1-3)[Fuc(a1-2)Gal(b1-4)[Fuc(a1-3)]GlcNAc(b1-2)Man(a1-6)]Man(b1-4)GlcNAc(b1-4)GlcNAc", "procedure,_shortened": "as §1"}, "[7]": {"biological_target": "Fuc(a1-2)Gal(b1-4)[Fuc(a1-3)]GlcNAc(b1-3)Gal(b1-4)[Fuc(a1-3)]GlcNAc", "procedure,_shortened": "as §1"}, "[8]": {"biological_target": "Fuc(a1-2)Gal(b1-4)[Fuc(a1-3)]GlcNAc(b1-3)Gal(b1-4)[Fuc(a1-3)]GlcNAc(b1-3)Gal(b1-4)[Fuc(a1-3)]GlcNAc", "procedure,_shortened": "as §1"}, "[9]": {"biological_target": "Fuc(a1-2)Gal(b1-4)[Fuc(a1-3)]GlcNAc(b1-3)GalNAc", "procedure,_shortened": "as §1"}, "[10]": {"biological_target": "Fuc(a1-2)Gal(b1-4)[Fuc(a1-3)]GlcNAc(b1-3)[Neu5Ac(a2-6)Gal(b1-4)GlcNAc(b1-6)]Gal(b1-4)Glc", "procedure,_shortened": "as §1"}, "[11]": {"biological_target": "Fuc(a1-2)Gal3S(b1-4)GlcNAc", "procedure,_shortened": "as §1"}, "[12]": {"biological_target": "Fuc(a1-2)Gal6S(b1-3)GlcNAc", "procedure,_shortened": "as §1"}, "[13]": {"biological_target": "Fuc(a1-2)Gal6S(b1-3)GlcNAc6S", "procedure,_shortened": "as §1"}, "Fuc(a1-2)Gal6S(b1-4)Glc": {"biological_target": "Fuc(a1-2)Gal6S(b1-4)Glc", "procedure,_shortened": "as §1"}, "[14]": {"biological_target": "Fuc(a1-2)Gal6S(b1-4)Glc6S", "procedure,_shortened": "as §1"}, "[15]": {"biological_target": "Fuc(a1-2)Gal6S(b1-4)GlcNAc", "procedure,_shortened": "as §1"}, "Fuc(a1-2)[Gal(a1-3)]Gal": {"biological_target": "Fuc(a1-2)[Gal(a1-3)]Gal", "procedure,_shortened": "as §1"}, "[16]": {"biological_target": "Fuc(a1-2)[Gal(a1-3)]Gal(b1-3)GalNAc", "procedure,_shortened": "as §1"}, "[17]": {"biological_target": "Fuc(a1-2)[Gal(a1-3)]Gal(b1-3)GalNAc(b1-3)Gal(a1-4)Gal(b1-4)Glc", "procedure,_shortened": "as §1"}, "[18]": {"biological_target": "Fuc(a1-2)[Gal(a1-3)]Gal(b1-3)GlcNAc", "procedure,_shortened": "as §1"}, "[19]": {"biological_target": "Fuc(a1-2)[Gal(a1-3)]Gal(b1-3)GlcNAc(b1-2)Man(a1-3)[Fuc(a1-2)[Gal(a1-3)]Gal(b1-3)GlcNAc(b1-2)Man(a1-6)]Man(b1-4)GlcNAc(b1-4)GlcNAc", "procedure,_shortened": "as §1"}, "[20]": {"biological_target": "Fuc(a1-2)[Gal(a1-3)]Gal(b1-3)GlcNAc(b1-2)Man(a1-3)[Fuc(a1-2)[Gal(a1-3)]Gal(b1-3)GlcNAc(b1-2)Man(a1-6)]Man(b1-4)GlcNAc(b1-4)[Fuc(a1-6)]GlcNAc", "procedure,_shortened": "as §1"}, "[21]": {"biological_target": "Fuc(a1-2)[Gal(a1-3)]Gal(b1-3)GlcNAc(b1-3)GalNAc", "procedure,_shortened": "as §1"}, "[22]": {"biological_target": "Fuc(a1-2)[Gal(a1-3)]Gal(b1-3)GlcNAc(b1-6)GalNAc", "procedure,_shortened": "as §1"}, "[23]": {"biological_target": "Fuc(a1-2)[Gal(a1-3)]Gal(b1-4)Glc", "procedure,_shortened": "as §1"}, "[24]": {"biological_target": "Fuc(a1-2)[Gal(a1-3)]Gal(b1-4)GlcNAc", "procedure,_shortened": "as §1"}, "[25]": {"biological_target": "Fuc(a1-2)[Gal(a1-3)]Gal(b1-4)GlcNAc(b1-2)Man", "procedure,_shortened": "as §1"}, "[26]": {"biological_target": "Fuc(a1-2)[Gal(a1-3)]Gal(b1-4)GlcNAc(b1-2)Man(a1-3)[Fuc(a1-2)[Gal(a1-3)]Gal(b1-4)GlcNAc(b1-2)Man(a1-6)]Man(b1-4)GlcNAc(b1-4)GlcNAc", "procedure,_shortened": "as §1"}, "[27]": {"biological_target": "Fuc(a1-2)[Gal(a1-3)]Gal(b1-4)GlcNAc(b1-2)Man(a1-3)[Fuc(a1-2)[Gal(a1-3)]Gal(b1-4)GlcNAc(b1-2)Man(a1-6)]Man(b1-4)GlcNAc(b1-4)[Fuc(a1-6)]GlcNAc", "procedure,_shortened": "as §1"}, "[28]": {"biological_target": "Fuc(a1-2)[Gal(a1-3)]Gal(b1-4)GlcNAc(b1-3)GalNAc", "procedure,_shortened": "as §1"}, "[29]": {"biological_target": "Fuc(a1-2)[Gal(a1-3)]Gal(b1-4)GlcNAc(b1-3)[Fuc(a1-2)[Gal(a1-3)]Gal(b1-4)GlcNAc(b1-6)]GalNAc", "procedure,_shortened": "as §1"}, "[30]": {"biological_target": "Fuc(a1-2)[Gal(a1-3)]Gal(b1-4)GlcNAc(b1-6)GalNAc", "procedure,_shortened": "as §1"}, "[31]": {"biological_target": "Fuc(a1-2)[Gal(a1-3)]Gal(b1-4)[Fuc(a1-3)]Glc", "procedure,_shortened": "as §1"}, "[32]": {"biological_target": "Fuc(a1-2)[Gal(a1-3)]Gal(b1-4)[Fuc(a1-3)]GlcNAc", "procedure,_shortened": "as §1"}, "[33]": {"biological_target": "Fuc(a1-2)[Gal(a1-3)]Gal(b1-4)[Fuc(a1-3)]GlcNAc(b1-3)GalNAc", "procedure,_shortened": "as §1"}, "[34]": {"biological_target": "Fuc(a1-2)[Gal(a1-4)]Gal(b1-4)GlcNAc", "procedure,_shortened": "as §1"}, "[35]": {"biological_target": "Fuc(a1-2)[GalNAc(a1-3)]Gal", "procedure,_shortened": "as §1"}, "[36]": {"biological_target": "Fuc(a1-2)[GalNAc(a1-3)]Gal(b1-3)GalNAc(a1-3)[Fuc(a1-2)]Gal(b1-4)GlcNAc", "procedure,_shortened": "as §1"}}, "note": "Some of the results follow."}
{"binder": "B1", "values": [{"measurement": "glycan array binding signal (z-score)", "setting": "[1]", "value": -0.265}, {"measurement": "glycan array binding signal (z-score)", "setting": "[2]", "value": -0.301}, {"measurement": "glycan array binding signal (z-score)", "setting": "[3]", "value": -0.294}, {"measurement": "glycan array binding signal (z-score)", "setting": "[4]", "value": -0.332}, {"measurement": "glycan array binding signal (z-score)", "setting": "[5]", "value": -0.272}, {"measurement": "glycan array binding signal (z-score)", "setting": "[6]", "value": -0.289}, {"measurement": "glycan array binding signal (z-score)", "setting": "[7]", "value": -0.283}, {"measurement": "glycan array binding signal (z-score)", "setting": "[8]", "value": -0.279}, {"measurement": "glycan array binding signal (z-score)", "setting": "[9]", "value": -0.275}, {"measurement": "glycan array binding signal (z-score)", "setting": "[10]", "value": -0.268}, {"measurement": "glycan array binding signal (z-score)", "setting": "[11]", "value": -0.27}, {"measurement": "glycan array binding signal (z-score)", "setting": "[12]", "value": -0.272}, {"measurement": "glycan array binding signal (z-score)", "setting": "[13]", "value": -0.262}, {"measurement": "glycan array binding signal (z-score)", "setting": "Fuc(a1-2)Gal6S(b1-4)Glc", "value": -0.299}, {"measurement": "glycan array binding signal (z-score)", "setting": "[14]", "value": -0.287}, {"measurement": "glycan array binding signal (z-score)", "setting": "[15]", "value": -0.33}, {"measurement": "glycan array binding signal (z-score)", "setting": "Fuc(a1-2)[Gal(a1-3)]Gal", "value": -0.295}, {"measurement": "glycan array binding signal (z-score)", "setting": "[16]", "value": -0.3}, {"measurement": "glycan array binding signal (z-score)", "setting": "[17]", "value": -0.275}, {"measurement": "glycan array binding signal (z-score)", "setting": "[18]", "value": -0.297}, {"measurement": "glycan array binding signal (z-score)", "setting": "[19]", "value": -0.284}, {"measurement": "glycan array binding signal (z-score)", "setting": "[20]", "value": -0.293}, {"measurement": "glycan array binding signal (z-score)", "setting": "[21]", "value": -0.288}, {"measurement": "glycan array binding signal (z-score)", "setting": "[22]", "value": -0.26}, {"measurement": "glycan array binding signal (z-score)", "setting": "[23]", "value": -0.298}, {"measurement": "glycan array binding signal (z-score)", "setting": "[24]", "value": -0.288}, {"measurement": "glycan array binding signal (z-score)", "setting": "[25]", "value": -0.26}, {"measurement": "glycan array binding signal (z-score)", "setting": "[26]", "value": -0.209}, {"measurement": "glycan array binding signal (z-score)", "setting": "[27]", "value": -0.288}, {"measurement": "glycan array binding signal (z-score)", "setting": "[28]", "value": -0.286}, {"measurement": "glycan array binding signal (z-score)", "setting": "[29]", "value": -0.12}, {"measurement": "glycan array binding signal (z-score)", "setting": "[30]", "value": -0.169}, {"measurement": "glycan array binding signal (z-score)", "setting": "[31]", "value": -0.298}, {"measurement": "glycan array binding signal (z-score)", "setting": "[32]", "value": -0.302}, {"measurement": "glycan array binding signal (z-score)", "setting": "[33]", "value": -0.297}, {"measurement": "glycan array binding signal (z-score)", "setting": "[34]", "value": -0.282}, {"measurement": "glycan array binding signal (z-score)", "setting": "[35]", "value": -0.273}, {"measurement": "glycan array binding signal (z-score)", "setting": "[36]", "value": -0.301}]}
